The list shows a part of the results.

To fix the notation:
B1: PhoQ; a variant is named by its letters at X, in order, P23837 (parent)
chain: MKKLLRLFFPLSLRVRFLLATAAVVLVLSLAYGMVALIGYSVSFDKTTFRLLRGESNLFYTLAKWENNKLHVELPENIDKQSPTMTLIYDENGQLLWAQRDVPWLMKMIQPDWLKSNGFHEIEADVNDTSLLLSGDHSIQQQLQEVREDDDDAEMTHSVAVNVYPATSRMPKLTIVVVDTIPVELKSSYMVWSWFIYVLSANLLLVIPLLWVAAWWSLRPIEALAKEVRELEEHNRELLNPATTRELTSLVRNLNRLLKSERERYDKYRTTLTDLTHSLKTPLXXLQXXLRSLRSEKMSVSDAEPVMLEQISRISQQIGYYLHRASMRGGTLLSRELHPVAPLLDNLTSALNKVYQRKGVNISLDISPEISFVGEQNDFVEVMGNVLDNACKYCLEFVEISARQTDEHLYIVVEDDGPGIPLSKREVIFDRGQRVDTLRPGQGVGLAVAREITEQYEGKIVAGESMLGGARMEVIFGRQHSAPKDE

In the assay the parent is B1. The experiment in a line: enrichment ratio after two sorts for PhoP signalling (ratio (wild type AVST 3.29)); higher = more functional. As to conditions: with PhoP (E. coli).
WNAH: the enrichment ratio was at most 0.25.

With YKQM, the enrichment ratio was at most 0.25.

For the variant IDWL, the enrichment ratio is at most 0.25.

Consider RKPN, for which the enrichment ratio was at most 0.25.

Consider AEFC, for which the enrichment ratio is 6.7.

As to LPFY, the enrichment ratio is at most 0.25.

As to QMRI, the enrichment ratio was at most 0.25.

For the variant QEEC, the enrichment ratio was at most 0.25.

Consider DNWT, for which the enrichment ratio was at most 0.25.

On to ELRY, for which the enrichment ratio was at most 0.25.

Turning to LMVD, the enrichment ratio was at most 0.25.

In the case of MEVS, the enrichment ratio turned out to be 1.37.

With RKHR, the enrichment ratio was at most 0.25.

In the case of GPVC, the enrichment ratio is at most 0.25.

Turning to HLRY, the enrichment ratio was at most 0.25.

Consider RGRS, for which the enrichment ratio is at most 0.25.

GCMF: the enrichment ratio was determined as 3.35.

Regarding QWYF, the enrichment ratio is at most 0.25.

Regarding HFSL, the enrichment ratio is at most 0.25.

Take LYIQ: the enrichment ratio was at most 0.25.

As to LIAF, the enrichment ratio is at most 0.25.

With NNQG, the enrichment ratio is at most 0.25.

In the case of PFFY, the enrichment ratio was at most 0.25.

Regarding GIVS, the enrichment ratio worked out at 7.04.

Turning to PLFV, the enrichment ratio is at most 0.25.

AMWY: the enrichment ratio was at most 0.25.

With QTFP, the enrichment ratio was at most 0.25.

Regarding LITS, the enrichment ratio is at most 0.25.

Turning to AGCG, the enrichment ratio was at most 0.25.

As to KLLH, the enrichment ratio was at most 0.25.

For the variant NHNT, the enrichment ratio is at most 0.25.

Consider NYDA, for which the enrichment ratio was at most 0.25.

Regarding LLPT, the enrichment ratio was at most 0.25.

SMLL: the enrichment ratio was found to be 11.2.

Consider TIAG, for which the enrichment ratio is 21.3.

As to VGIH, the enrichment ratio is at most 0.25.

IMVW: the enrichment ratio is at most 0.25.

For GCCL, the enrichment ratio was 4.47.

Regarding DWNG, the enrichment ratio was at most 0.25.

Turning to SKCT, the enrichment ratio was determined as 14.2.

Regarding WNGY, the enrichment ratio is at most 0.25.

In the case of TNRA, the enrichment ratio is at most 0.25.

As for TDQH, the enrichment ratio was at most 0.25.

On to DCCD, for which the enrichment ratio is at most 0.25.

For CSFE, the enrichment ratio is at most 0.25.

Take RSSF: the enrichment ratio was at most 0.25.

As to WRLK, the enrichment ratio was at most 0.25.

In the case of KPFY, the enrichment ratio is at most 0.25.

HYHA: the enrichment ratio is at most 0.25.

Consider QKMS, for which the enrichment ratio was at most 0.25.

For the variant EPAQ, the enrichment ratio is at most 0.25.

Turning to KFES, the enrichment ratio was at most 0.25.

SNCS: the enrichment ratio was found to be 19.6.

Regarding TIRP, the enrichment ratio was at most 0.25.

In the case of MIDR, the enrichment ratio was at most 0.25.

Take ITKN: the enrichment ratio is at most 0.25.

In the case of FNYN, the enrichment ratio is at most 0.25.

For the variant ATHS, the enrichment ratio was at most 0.25.

In the case of YDHC, the enrichment ratio was at most 0.25.

Regarding MHAR, the enrichment ratio was at most 0.25.

With VPNP, the enrichment ratio was at most 0.25.

Turning to PRMV, the enrichment ratio was determined as 1.94.

As for IDSA, the enrichment ratio was at most 0.25.

For IHPS, the enrichment ratio was at most 0.25.

For AQHM, the enrichment ratio was at most 0.25.

Consider TDAR, for which the enrichment ratio is at most 0.25.

Turning to FDWI, the enrichment ratio was at most 0.25.

For FTNN, the enrichment ratio is at most 0.25.

With NKSF, the enrichment ratio is at most 0.25.

For the variant FWAL, the enrichment ratio is 0.585.

In the case of KTFA, the enrichment ratio is 1.05.

For the variant DENT, the enrichment ratio was at most 0.25.

On to GIDW, for which the enrichment ratio was at most 0.25.

For KFSV, the enrichment ratio was at most 0.25.

Turning to NNFR, the enrichment ratio was at most 0.25.

Consider PMFM, for which the enrichment ratio is 0.25.

Turning to PKGM, the enrichment ratio was at most 0.25.

In the case of TCVG, the enrichment ratio was at most 0.25.

For VYWR, the enrichment ratio was at most 0.25.

On to LVRQ, for which the enrichment ratio was at most 0.25.

For the variant GHYA, the enrichment ratio was at most 0.25.

For GYYK, the enrichment ratio is at most 0.25.

Consider VSLY, for which the enrichment ratio came out at 1.03.

Take FTAA: the enrichment ratio is at most 0.25.

In the case of QDIA, the enrichment ratio is at most 0.25.

Regarding NPRD, the enrichment ratio was at most 0.25.

Consider VDRI, for which the enrichment ratio is at most 0.25.

Take WFGG: the enrichment ratio was at most 0.25.

With TMRV, the enrichment ratio is at most 0.25.

For KFYT, the enrichment ratio was at most 0.25.

Regarding WMYC, the enrichment ratio was at most 0.25.

Consider IEYK, for which the enrichment ratio is at most 0.25.

For MEDI, the enrichment ratio is at most 0.25.

Turning to CKLD, the enrichment ratio was at most 0.25.

Take YGFN: the enrichment ratio was at most 0.25.

Turning to QHAK, the enrichment ratio was at most 0.25.

On to HAKS, for which the enrichment ratio is at most 0.25.

On to PAPY, for which the enrichment ratio is at most 0.25.

For RSAH, the enrichment ratio is at most 0.25.

As to SHVM, the enrichment ratio was found to be 6.53.

For the variant MSRR, the enrichment ratio is at most 0.25.

With NFLG, the enrichment ratio was at most 0.25.

FPST: the enrichment ratio was at most 0.25.

On to IDEN, for which the enrichment ratio was at most 0.25.

As to TMVM, the enrichment ratio is at most 0.25.

As for LHFP, the enrichment ratio is at most 0.25.

Turning to GRMQ, the enrichment ratio is at most 0.25.

Take YELP: the enrichment ratio is at most 0.25.

Consider MGWD, for which the enrichment ratio was at most 0.25.

Turning to QFAL, the enrichment ratio is at most 0.25.

Take QFDN: the enrichment ratio is at most 0.25.

For the variant SSPC, the enrichment ratio is at most 0.25.

For the variant RHHG, the enrichment ratio was at most 0.25.

As for PCRY, the enrichment ratio is at most 0.25.

RIDF: the enrichment ratio was at most 0.25.

As for LLWY, the enrichment ratio was at most 0.25.

As to PLYQ, the enrichment ratio is at most 0.25.

Regarding TRWG, the enrichment ratio was at most 0.25.

As for LWAD, the enrichment ratio is at most 0.25.

As to SRWS, the enrichment ratio was at most 0.25.

As for IYFE, the enrichment ratio was at most 0.25.

As for DASV, the enrichment ratio is at most 0.25.

With MDEA, the enrichment ratio was at most 0.25.

Regarding IKMY, the enrichment ratio was at most 0.25.

In the case of PRVM, the enrichment ratio was at most 0.25.

SISY: the enrichment ratio was 9.74.

In the case of KNAC, the enrichment ratio was at most 0.25.

MHFL: the enrichment ratio is at most 0.25.

Regarding MAVF, the enrichment ratio is at most 0.25.

For CILT, the enrichment ratio was at most 0.25.

Consider WHCF, for which the enrichment ratio is at most 0.25.

For the variant IDDA, the enrichment ratio is at most 0.25.

Regarding SNGL, the enrichment ratio was 6.07.

Consider FFDH, for which the enrichment ratio is at most 0.25.

With LYCE, the enrichment ratio is at most 0.25.

As to SSGG, the enrichment ratio was at most 0.25.

Take GPDI: the enrichment ratio is at most 0.25.

Take HNKR: the enrichment ratio was at most 0.25.

Regarding WWLF, the enrichment ratio was at most 0.25.

With ASTG, the enrichment ratio was determined as 14.7.

With GHYT, the enrichment ratio is at most 0.25.

For the variant QFNN, the enrichment ratio is at most 0.25.

Turning to WSGG, the enrichment ratio is at most 0.25.

Turning to HQFF, the enrichment ratio is at most 0.25.

MMWH: the enrichment ratio was 1.55.

On to MCQI, for which the enrichment ratio was at most 0.25.

Regarding RAVC, the enrichment ratio was at most 0.25.

As to VMEF, the enrichment ratio is at most 0.25.

RLYA: the enrichment ratio was at most 0.25.

In the case of GCGM, the enrichment ratio is 2.98.

On to VRAT, for which the enrichment ratio is at most 0.25.

As for MDVR, the enrichment ratio is at most 0.25.

RFKI: the enrichment ratio is at most 0.25.

These data come from a collection of fitness landscapes (doi:10.1126/science.1257360).
